# Results published in the supplement of paper PMC11417369.
# ± gives the standard deviation of the averaged measurements. Some of the results follow.
# System: PfAP2-G AP2 domain (GST-tagged)
# Test: gcPBM binding intensity (ln(normalized median fluorescence intensity)); higher = stronger DNA binding
# Summary of the method: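 GST-tagged P. falciparum DNA-binding domains produced in E. coli were incubated for 1 h on an Agilent 4 × 180k array of primer-extended double-stranded 36-bp intergenic genomic probes with negative controls. Binding intensity is the highest Masliner-normalised natural-log median intensity across replicate spots of either probe orientation, with bound protein detected by Alexa488 anti-GST antibody at 488 nm.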
row,Sequence,gcPBM binding intensity (ln)
1,TTTTTTTTTTTTTAAATAATCATACATGTGAAATTG [GTGCAC_negctrl_site328],9.84 ± 0.31
2,AAAAAATAAGATTGTACACACATAAATTCTTTGTCA [CACACA_site2089],11.3 ± 0.93
3,CGTTCTATTTAGATATGTACTTAAATATATGATCAT [XGTACX_site2936],11.1 ± 0.76
4,TATCATATAAAACATGCACACATATGTACTCTTATA [CACACA_site9249],11.3 ± 1
5,AATATTATTATCTTACCACACACAATCTACGAAAAG [CACACA_site8006],10.1 ± 0.14
6,TTAAAGAATATTTTCACACATAAAAATTTTAATTTA [CACACA_site4290],9.66 ± 0.099
7,TTATAAAACACAAAATGTACAAAAAATTATAATTAA [XGTACX_site6859],10.7 ± 0.33
8,TATATATATATAAGTGCACACTGAACCAAGAAAATT [CACACA_site5637],10.8 ± 0.45
9,TATGTCTTGTTGTAAAATATTTATTAACAAATTGGC [CACACA_negctrl_site1452],9.98 ± 0.21
10,TATTTTTCCATATGCACACACACCGTATATATAATA [CACACA_site1127],10.3 ± 0.11
11,CATATACACCAACACACACACACACCCACAAAAAAA [CACACA_site496],10.5 ± 0.53
12,AAATAAATAATTTAATGTACATATATAATATATATA [XGTACX_site1831],11 ± 0.57
13,ATAACAAAATAAAACACACACACAAATGTACATATA [CACACA_site2425],11.3 ± 0.76
14,CACTTTATACGTAATTGTACTTTTTCTTTTTTTTAT [XGTACX_site3175],11.5 ± 0.86
15,ACTTACTAATTAATGGGTACATACACACATATATAC [XGTACX_site1362],11.3 ± 0.84
16,TATTCAAAGAAAGACAGTACGTGTAGCAAACAACCT [XGTACX_site4218],11 ± 0.63
17,TAAATAAAGTATAATGCATGCTATTATAATATTAAT [TGCATGCA_site825],9.76 ± 0.014
18,CTTTTTAATAAATATACACACACAAAAAAAAAAAAA [CACACA_site9316],10.1 ± 0.52
19,ATGATATATAGACACACACACATATTTATATACATT [CACACA_site6404],10

row,Sequence,gcPBM binding intensity (ln)
1,AATAAAAAAATAGAAACACACATTAAAAAAAATAAA [CACACA_site1333],9.925 ± 0.021
2,TTTTATAATATTTAAAGTACATTCTAAAAATATAAT [XGTACX_site8033],11 ± 0.76
3,TTAGCCATTAATTCTCTACACACCTTTATGTTATTT [CACACA_site9212],9.9 ± 0.18
4,CCCCCCCACGGACACACACACATACATACCACATAT [CACACA_site5303],11.7 ± 0.75
5,TACATATAATATATTGCACACGTCAGAATAATATAG [CACACA_site1744],10.1 ± 0.15
6,TAATAGAATATGATGGTGCAGCAGTCTTATTTTTCA,9.825 ± 0.049
7,TTTCTTTCTTCACATATATATATATATATATTTATA [TGCATGCA_negctrl_site341],10 ± 0.057
8,ATTTTTTTTTTTTTTTTTTTTTTTTAGATTAAGAAA [CACACA_negctrl_site1272],9.66 ± 0.16
9,AAATAAAATAAAATAAAATAAAATTCTTTGATACCT [TGCATGCA_negctrl_site604],9.54 ± 0.2
10,TATAATTATTTTTTTCTAAATATTATAAGGTATTCA [GTGCAC_negctrl_site205],9.87 ± 0.31
11,TAAAAATGTGTATGTACACACTTTATTTTTAATACA [CACACA_site7235],11.6 ± 0.99
12,TATTCATATTTAAAGGTGCAATATTTATTTTGTACA,10.2 ± 0.18
13,TATTCTAATTTTTAAACACACAAATATAAATAAGTA [CACACA_site3149],9.96 ± 0.23
14,CTATTTATTATATATACATGCATATATATATTAATA [TGCATGCA_site527],9.71 ± 0.19
15,AGATGATATATTATATATCCTTTTAATAAATGTAAT [CACACA_negctrl_site730],9.65 ± 0.071
16,ACATATAATATATATATATATATATATATATATAAT [GTGCAC_negctrl_site648],9.73 ± 0.26
17,TATATAAAAAATTCAATACACACCATATATAAATAT [CACACA_site3987],9.97 ± 0.014
18,TATTAAACGAAACACACACACACACCCATATATAAA [CACACA_site759],10.3 ± 0.3
19,AAAAAGAATGTGAACACACACATTGAATCTAATTTA [CACACA_site6711],9.86 ± 0.15

row,Sequence,gcPBM binding intensity (ln)
1,GATAATTATGGACACACACACACACCCACAACTAAA [CACACA_site8824],11.2 ± 0.76
2,AAAAAAAAAAAAAAGAGTACTTTTTTCTCATTACTA [XGTACX_site8353],11.3 ± 0.64
3,TATTCTTCAATTTAAAGTACAAAAATTACTATACTT [XGTACX_site6599],11 ± 0.77
4,AAAAAAAAAAAAATAGGTACGTAAATATTTCTTTAA [XGTACX_site6423],11 ± 0.46
5,TCTTTTAGTTTTATCCACATAATAAAAAGCAAAAAA [GTGCAC_negctrl_site368],10.1 ± 0.33
6,AATTAAAATATATATATACACACGTAATTATATATA [CACACA_site3819],9.78 ± 0.085
7,ATTGTGGCAATATATTGTACATGTAATATAAATATA [XGTACX_site5415],11 ± 0.64
8,TTTGTATAGTTGTAGGTGCATATCATTTTTAAATGT [GTGCAC_site9708],10.2 ± 0.18
9,TGTTAATAAAGGTGTACACAAAATAAAAAAAATTAT [CACACA_site4288],11.7 ± 0.92
10,AAGTATGCTTGCTACTTATTAAGTGGCAATATAATT [XGTACX_negctrl_site74],10.1 ± 0.25
11,TATAATTATATTTGGAGTACAAATTTTTTTTTTTTT [XGTACX_site7494],11.5 ± 0.9
12,AAAAAAAAAGGTAACGCATGCTTTTAGATTATATTA [TGCATGCA_site398],9.58 ± 0.23
13,GGACAAAAAAAAAAAATAAAATAAAAATAAATAAAT [XGTACX_negctrl_site106],9.92 ± 0.028
14,AGAACCATATATAAATGTACATGTTAATATGAATAA [XGTACX_site130],11 ± 0.48
15,AAAAATTCCAGACACACACACACATATAAATAAATA [CACACA_site1232],10.2 ± 0.43
16,AAATATATATGAAGATGTACATATATATATGTAAAT [XGTACX_site4039],11.1 ± 0.66
17,TAACACTTATAAAAAAGTACTGATGAAATAATACTA [XGTACX_site7305],11.1 ± 0.87
18,AAAAAAACAGTGAATGCACACATTTAAGATCCATAT [CACACA_site3148],9.97
